# Measurements: PubChem BioAssay AID588342 (National Center for Advancing Translational Sciences (NCATS), 2011)
# The whole screen tested about 360,000 compounds, of which about 25,000 (6.9%) were called active. The inconclusive results got no clear call from the source; some entries with a clear call stand among them for comparison. Calls follow the shape of the dose curve; as a rule, active = well fitted inhibition curve with a large enough effect; inconclusive = small, poorly fitted or top-dose-only effect; inactive = flat fitted curve, though single readings scatter. Potencies of inconclusive entries are doubtful fits and often do not repeat.
# Target: Luciferin 4-monooxygenase (Photinus pyralis) (UniProt P08659)
# Sequence of UniProt P08659 (P08659 whole entry, looked up): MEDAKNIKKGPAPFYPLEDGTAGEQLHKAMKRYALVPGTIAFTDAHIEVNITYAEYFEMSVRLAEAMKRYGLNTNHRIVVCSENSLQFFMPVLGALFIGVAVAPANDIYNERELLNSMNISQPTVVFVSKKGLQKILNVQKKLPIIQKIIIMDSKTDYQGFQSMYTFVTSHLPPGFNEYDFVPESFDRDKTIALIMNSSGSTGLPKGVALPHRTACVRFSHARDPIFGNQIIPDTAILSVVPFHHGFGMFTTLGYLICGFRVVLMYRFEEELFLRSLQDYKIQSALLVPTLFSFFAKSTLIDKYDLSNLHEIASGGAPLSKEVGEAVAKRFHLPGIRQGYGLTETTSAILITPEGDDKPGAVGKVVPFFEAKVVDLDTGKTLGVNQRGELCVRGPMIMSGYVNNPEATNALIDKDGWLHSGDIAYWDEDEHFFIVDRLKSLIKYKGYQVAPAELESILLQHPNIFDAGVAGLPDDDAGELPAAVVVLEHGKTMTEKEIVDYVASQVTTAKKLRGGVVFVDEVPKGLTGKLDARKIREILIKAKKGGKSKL
# Assay: qHTS profiling assay for firefly luciferase inhibitor/activator using purifed enzyme and Km concentrations of substrates (counterscreen for miR-21 project); also: nearly all actives have a fitted effect of over 55% in size;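 as to activity change, negative = inhibition: plate controls were vehicle for no effect and reference inhibitor for full effect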
# Conditions: purified FLuc, luminescence inhibition; series mostly up to 57.5 µM; activity change, negative = inhibition: at the top concentration
# In short: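 Biochemical qHTS of compounds, final roughly 60 µM downward over six points, against 10 nM purified firefly luciferase using Km concentrations of substrates (10 uM D-luciferin, 10 uM ATP) in Tris acetate pH 7.5 buffer; luminescence output.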
# Potency is read from the fitted curve at half-maximal effect; tags tell the direction and shape of the fitted curve.
Compound,Potency,"activity change, negative = inhibition"
O=C(O)CCCC(=O)Nc1ccc(OCc2nc3ccccc3s2)cc1,active: 16.9 µM,
Cc1ccccc1-n1c(C)cc(/C=N/NC(=O)c2ccc(CN3CCOCC3)cc2)c1C,"inconclusive: 8.49 µM [inhibitor, partial curve]",
Cc1cc(F)ccc1NC(=O)C1CSC2(C)CCC(=O)N12 (stereo not drawn),,inactive: -1.21%
C/C(=N/NC(=O)c1ccco1)c1ccc(NC(=O)c2ccc(F)cc2)cc1,"inconclusive: 23.9 µM [inhibitor, partial curve, poor fit]",
COc1ccc(-c2cc(C(=O)N3CCOCC3)c3ccccc3n2)cc1OC,"inconclusive: 37.9 µM [inhibitor, single point]",
O=C(Cc1cccc(Cl)c1)Nc1ccc(Br)cc1,"inconclusive: 37.9 µM [inhibitor, partial curve, poor fit]",
CCn1c(SCC(=O)c2ccc(O)c(O)c2)nnc1-c1ccccc1,"inconclusive: 23.9 µM [inhibitor, single point]",
Cc1ccc(-n2nc(CO)c(C(=O)NCCCCc3ccccc3)n2)cc1C,"inconclusive: 9.53 µM [inhibitor, partial curve]",
Cc1ccc(NC(=O)COC(=O)CCC(=O)c2ccc(Cl)cc2)cc1S(=O)(=O)N(C)C,"inconclusive: 23.9 µM [inhibitor, partial curve, poor fit]",
O=C(Nc1nc2ccccc2[nH]1)c1cc(F)cc(F)c1,active: 2.69 µM,
CCOC(=O)C1(CC2CC2)CCN(Cc2cc(Cl)c(O)c(OC)c2)CC1,,inactive: -0.951%
Clc1cnc(N/N=C/c2ccncc2)c(Cl)c1,"inconclusive: 21.3 µM [inhibitor, single point]",
O=C(NCCc1ccccc1)c1ccc(-n2cnnn2)cc1,"inconclusive: 37.9 µM [inhibitor, partial curve, poor fit]",
CC(C)c1nnc(SCC(=O)Nc2ccc3c(c2)OCCO3)n1C,,inactive: 2.12%
COc1cc2c(cc1OC)CN(C(=O)CN1CCN(S(=O)(=O)c3ccccc3)CC1)CC2,,inactive: 1.34%
O=C(NCc1ccccc1)C(=O)Nc1nc(C23CC4CC(CC(C4)C2)C3)cs1,,inactive: -5.52%
Cc1c(OCc2nn[nH]n2)ccc2c3c(c(=O)oc12)CCCC3,active: 21.3 µM,
C(=C\n1nnc2ccccc21)/c1ccc[nH]1,"inconclusive: 16.9 µM [inhibitor, partial curve]",
O=C(c1ccc(Cn2c(=O)[nH]c3ccccc3c2=O)cc1)N1CCN(c2ccc(Cl)cc2)CC1,,inactive: 5.05%
O=C(Cc1ccc(Cl)c(Cl)c1)NC1CCCCCC1,"inconclusive: 23.9 µM [inhibitor, partial curve, poor fit]",
O=C(CCSc1nc(-c2ccco2)cc(C(F)(F)F)n1)NCCc1ccccc1,"inconclusive: 37.9 µM [inhibitor, partial curve, poor fit]",
O=C(O)CCn1cc(/C=C2\SC(=S)NC2=O)c(-c2ccccc2)n1,"inconclusive: 23.9 µM [inhibitor, partial curve, poor fit]",

Compound,Potency,"activity change, negative = inhibition"
O=C(Nc1nc2c(s1)CCCC2)C1COc2ccccc2O1 (stereo not drawn),active: 0.757 µM,
Cc1cc2c(c(=O)n1-c1ccccc1)C1O[C@](c3ccsc3)(Cc3ccccc31)O2,,inactive: -15.8% [at 11.5 µM]
CC(=O)Nc1ccc(S(=O)(=O)Oc2cccc(/C=N/N=C3/NC(=O)C(CC(=O)O)S3)c2)cc1 (stereo not drawn),"inconclusive: 30.1 µM [inhibitor, partial curve, poor fit]",
Cc1cccc(C2=NOC(=O)/C2=C\c2ccccc2F)c1,"inconclusive: 12 µM [inhibitor, partial curve]",
CC(C)CC1(C)NC(=O)N(CC(=O)NC(=O)Nc2ccc3c(c2)OCCO3)C1=O (stereo not drawn),"inconclusive: 21.3 µM [inhibitor, partial curve, poor fit]",
CCS(=O)(=O)NCCc1csc(-c2ccccc2)n1,"inconclusive: 37.9 µM [inhibitor, partial curve, poor fit]",
O=C(O)c1ccc(N=Cc2nc(-c3ccco3)oc2O)cc1,"inconclusive: 23.9 µM [inhibitor, single point]",
CCOC(=O)c1ccc(NC(=O)CN2C(=O)C(C)SC(C)C2=O)cc1 (stereo not drawn),"inconclusive: 26.9 µM [inhibitor, single point]",
COc1cc(/C=N/Nc2ccc(C(F)(F)F)cn2)cc(OC)c1O,"inconclusive: 21.3 µM [inhibitor, partial curve, poor fit]",
Cc1c(NC(=O)c2ccc(-c3cccc([N+](=O)[O-])c3)o2)cccc1-c1nc2cc(Cl)ccc2o1,"inconclusive: 15.1 µM [inhibitor, partial curve]",
Cn1c(=O)oc2cc(S(=O)(=O)NCCC(=O)Nc3ccc(F)cc3F)ccc21,,inactive: -2.64%
COc1cc(/C(C)=N/NC(=O)CSc2nncn2C)ccc1OCc1ccccc1Cl,"inconclusive: 10.7 µM [inhibitor, single point]",
CN(C(=O)C1CCCO1)c1nnc(-c2ccccn2)s1 (stereo not drawn),active: 15.1 µM,
CC(C)Oc1cccc(-c2cc(C(=O)NC(=S)N(C)c3ccccc3C(=O)O)c3ccccc3n2)c1,active: 2.69 µM,
COc1ccc(Cc2nc(-c3cccs3)no2)cc1OC,"inconclusive: 37.9 µM [inhibitor, single point]",
COc1ccc(/C=N/NC(=O)CNC(=O)C2COc3ccccc3O2)cc1OC (stereo not drawn),"inconclusive: 37.9 µM [inhibitor, single point]",
COc1cccc(-n2c(=O)[nH]cc(C(=O)Nc3ccc4c(c3)OCCO4)c2=O)c1,"inconclusive: 0.953 µM [inhibitor, full curve, poor fit]",
O=C(CCSc1ccccc1)NC1CCCC1,active: 15.1 µM,
COCc1nc(-c2ccc(-c3ccc(OC)cc3)nc2OC)no1,"inconclusive: 23.9 µM [inhibitor, single point]",
CCc1nc2nc(C)c(NS(=O)(=O)c3ccc(C(C)(C)C)cc3)c(=O)n2[nH]1,"inconclusive: 12 µM [inhibitor, partial curve, poor fit]",
COc1ccccc1-n1c(-c2cc(-c3ccco3)[nH]n2)n[nH]c1=S,"inconclusive: 37.9 µM [inhibitor, partial curve, poor fit]",
